Laboratory results as given in PubChem BioAssay AID360 (National Center for Advancing Translational Sciences (NCATS), 2006).
Hit rate of the full screen: of about 48,000 compounds, about 550 (1.1%) were called active. About 4% were inconclusive and are not listed. Rule as the data show it: active = potency below about 15 µM; inconclusive = mostly about 16 µM to 33 µM; inactive = weaker than that. This is one part of the list.

Molecular target: Lysosomal acid glucosylceramidase (Homo sapiens) (UniProt P04062)
Chain of UniProt P04062 (P04062 whole entry, looked up): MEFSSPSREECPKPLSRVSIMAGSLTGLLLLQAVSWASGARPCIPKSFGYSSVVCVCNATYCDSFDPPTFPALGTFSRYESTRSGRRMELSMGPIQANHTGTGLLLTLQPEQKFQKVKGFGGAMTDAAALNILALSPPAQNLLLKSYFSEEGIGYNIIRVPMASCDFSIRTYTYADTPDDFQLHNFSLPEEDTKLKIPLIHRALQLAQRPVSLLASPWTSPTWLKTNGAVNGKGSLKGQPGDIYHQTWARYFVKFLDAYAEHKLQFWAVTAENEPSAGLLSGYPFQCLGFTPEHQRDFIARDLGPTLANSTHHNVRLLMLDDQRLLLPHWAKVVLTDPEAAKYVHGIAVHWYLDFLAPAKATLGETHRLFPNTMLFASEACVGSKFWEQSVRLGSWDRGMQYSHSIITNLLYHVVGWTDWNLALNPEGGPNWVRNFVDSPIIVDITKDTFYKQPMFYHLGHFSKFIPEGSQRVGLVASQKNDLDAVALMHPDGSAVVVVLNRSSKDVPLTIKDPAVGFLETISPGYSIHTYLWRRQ
Experiment: Glucocerebrosidase;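 also: the screen sought inhibitors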
Details: purified enzyme, resorufin glucoside fluorescence (screen aimed at inhibitors), 20 min; series mostly up to 77 µM
Summary of the method: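 Normal human glucocerebrosidase (0.2 nM final) was assayed with resorufin β-D-glucopyranoside (30 uM final) in 50mM citric acid/KH2PO4, 10mM sodium taurocholate, 0.01% tween-20, pH 5.9. Compounds were titrated; fluorescence (Ex 548, Em 600) read after 20 min at RT.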
Potency is read from the fitted curve at half-maximal effect.

Potency, inactive:
COc1ccccc1N(CN1CCCC1=O)C(=O)c1ccccc1F > 76.9 µM
COC(=O)[C@H](C)NC(=O)NCc1ccco1 > 76.9 µM
Cc1ccc(OCC(=O)NCCN2CCCC2)cc1 > 76.9 µM
COc1ccc(-c2c3c(=O)n(C)c(=O)n(C)c3cn2Cc2ccccn2)cc1 > 76.9 µM
COc1ccc(-c2nnc(SCC(=O)NC(C)C)n2CC2CCCO2)cc1OC (stereo not drawn) > 76.9 µM
COc1ccc(CCNS(=O)(=O)c2ccc3oc(C(=O)O)c(C)c3c2)cc1OC > 76.9 µM
O=C(CN1C(=O)c2ccccc2S1(=O)=O)Nc1cccnc1 > 76.9 µM
Cc1nnc(NC(=O)c2cc3n(n2)C(C(F)(F)F)CC(C2CC2)N3)s1 (stereo not drawn) > 76.9 µM
CCCNC(=O)c1cc(-c2ccco2)on1 > 76.9 µM
COc1cccc(C(=O)Nc2c3c(nn2-c2ccccc2C)CS(=O)C3)c1OC (stereo not drawn) > 76.9 µM
Cc1nc2c(C)cccn2c1/C(O)=C1\C(=O)C(=O)N(CCN2CCOCC2)C1c1ccncc1 (stereo not drawn) > 76.9 µM
Cc1cccc(NS(=O)(=O)c2cccs2)n1 > 76.9 µM
CC(C)OC(=O)CSc1nc2ncccc2[nH]1 > 76.9 µM
CCOC(=O)C(NC(=O)CC)(Nc1sc2c(c1C(=O)OC)CCN(C)C2)C(F)(F)F (stereo not drawn) > 76.9 µM
COc1ccc(N2C(=O)C3CCCN3C2c2ccc(F)cc2)cc1Cl (stereo not drawn) > 76.9 µM
COC(=O)c1sc(NC(=O)CSc2nnc(C(C)C)n2C)nc1C > 76.9 µM
CC1=[N+]([O-])C(C)(C)CC(C)(C)c2ccccc21 > 76.9 µM
CC(C)(C)c1ccccc1OCC(=O)Nc1ncn[nH]1 > 76.9 µM
Cn1c(SCC(=O)c2cccs2)nnc1-c1ccco1 > 76.9 µM
Cc1cccn2c(=O)c(/C=N/O)c(N3CCCCC3)nc12 > 76.9 µM
CCOC(=O)c1ccc(NC(=O)CC2SCCNC2=O)cc1 (stereo not drawn) > 76.9 µM
Cc1cc(NC(=O)COc2ccc3oc4ccccc4c3c2)no1 > 76.9 µM
O=C(Cc1c(O)c2ccccc2[nH]c1=O)NCc1ccc(F)cc1 > 76.9 µM
CCOC(=O)N1CCC(NC(=O)C2CCN(C(=O)N3CCOc4ccccc43)CC2)CC1 > 76.9 µM
CCC(C)(C)NC(=O)C(c1cccn1C)N(C(=O)Cn1nnc2ccccc21)c1ccc(F)cc1 (stereo not drawn) > 76.9 µM
COc1ccc(OCC(=O)Nc2ccc(S(=O)(=O)N3CCOCC3)cc2)cc1 > 76.9 µM
O=C(Nc1ccc2c(c1)OCCO2)c1ccc(S(=O)(=O)N2CCCCC2)cc1 > 76.9 µM
CCOC(=O)c1[nH]c2ccc(C)cc2c1NC(=O)CN1CCCCC1 > 76.9 µM
Nc1nnc(SCC(=O)Nc2ccc(F)c(Cl)c2)n1-c1ccccc1 > 76.9 µM
O=C1OCCC1Sc1nnc(-c2ccccc2)o1 (stereo not drawn) > 76.9 µM
Cc1cc(C)nc(SCC(=O)Nc2ncc3c(n2)CC(C)(C)CC3=O)n1 > 76.9 µM
COc1cc2[nH]c(=S)n(CCN3CCCCC3C)c(=O)c2cc1OC (stereo not drawn) > 76.9 µM
COC(=O)CN(c1ccc(OC)c(OC)c1)S(C)(=O)=O > 76.9 µM
COc1cccc(OC)c1Oc1ccc(C(F)(F)F)cn1 > 76.9 µM
COCCn1c(=O)[nH]c2cc(C(=O)NCCCN3CCN(c4ccc(F)cc4)CC3)ccc2c1=O > 76.9 µM
CCOC(=O)c1ccc(NC(=O)C2CCN(S(=O)(=O)CC)CC2)cc1
COc1cc(OC)cc(-c2nnc(SCC(=O)N3c4ccccc4Sc4ccccc43)o2)c1 > 76.9 µM
Cc1ccc2cc3cc(C(=O)NCc4ccc5c(c4)OCO5)oc3nc2c1 > 76.9 µM
CCOC(=O)CNC(=O)c1cn(CC)c(=O)c2cc(OC)c(OC)cc12 > 76.9 µM
COC(=O)c1c(NS(C)(=O)=O)sc2c1CCCC2 > 76.9 µM
O=C(Cn1nnc(-c2ccccc2)n1)OCc1csc(-c2ccccc2)n1 > 76.9 µM
C=C(c1cccc2ccccc12)P(=O)(O)O > 76.9 µM
O=C(CSc1nnc2scc(-c3ccccc3)n12)NCc1ccc2c(c1)OCO2 > 76.9 µM
CCOc1cccc(C(=O)Nc2ccc(N3CCN(S(C)(=O)=O)CC3)cc2)c1 > 76.9 µM
COC(=O)C1(S(=O)(=O)c2cc(Br)cc3c2N(C(C)=O)CC3)CC1 > 76.9 µM
CCOC(=O)C1CCN(C/C=C/c2ccccc2OC)CC1 > 76.9 µM
O=C(Nc1ccccc1Cl)c1cccs1 > 76.9 µM
Cc1ccccc1C(=O)Nc1ccc2c(c1)OCO2 > 76.9 µM
COc1ccc(NC(=O)NCCCN2CCCCC2C)cc1 (stereo not drawn) > 76.9 µM
O=C(NC1CCCC1)C(c1ccccc1)N(C(=O)c1ccno1)c1cccnc1 (stereo not drawn) > 76.9 µM
O=C(CSc1nc(Nc2ccccc2)nc(N2CCOCC2)n1)N1CCCC1 > 76.9 µM
COC(=O)c1cn(NC(=O)C2CCCCC2)c(=O)c2ccccc12 > 76.9 µM
O=S(=O)(Cc1ccc(Cl)cc1)N1CCN(Cc2ccccc2)CC1 > 76.9 µM
c1ccc(Cn2c(NCc3ccco3)nc3ccccc32)cc1 > 76.9 µM
CCCc1cn(S(=O)(=O)c2ccc(OC)cc2OC)nc1N > 76.9 µM
CCOc1cc(NS(C)(=O)=O)c(OCC)cc1NC(=O)c1cccs1 > 76.9 µM
N#Cc1c(F)cccc1N1CCOCC1 > 76.9 µM
Cc1nn(-c2ccccc2)c2[nH]c(=O)c(CNCc3ccc4c(c3)OCO4)cc12 > 76.9 µM
